Measured values reported in the BET-seq Pho4 binding data (Le et al. 2018).
The other results are listed elsewhere or left out. Values were computed here from the reads of four pooled replicates and scatter widely.

target: T1, Pho4 (S. cerevisiae) (UniProt P07270); assay: relative binding free energy (BET-seq); higher = weaker binding; settings: reference: library average
T1 sequence: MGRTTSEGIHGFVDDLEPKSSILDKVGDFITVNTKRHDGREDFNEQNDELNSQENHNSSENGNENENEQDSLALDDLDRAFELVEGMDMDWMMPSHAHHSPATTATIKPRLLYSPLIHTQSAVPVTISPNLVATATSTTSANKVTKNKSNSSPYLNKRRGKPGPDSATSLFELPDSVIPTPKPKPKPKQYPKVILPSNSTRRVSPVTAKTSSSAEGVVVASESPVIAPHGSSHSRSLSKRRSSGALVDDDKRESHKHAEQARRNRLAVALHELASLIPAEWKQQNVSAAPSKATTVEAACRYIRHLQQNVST

| Sequence | relative binding free energy [kcal/mol] |
| --- | --- |
| AAGGGCACGTGTATGG | -0.12 |
| AGCAGCACGTGGGAGT | -0.12 |
| TTAATCACGTGATGGT | 0.18 |
| TGAGTCACGTGTAGTG | 0.17 |
| GAAGGCACGTGGTTCG | -0.08 |
| CATGCCACGTGGGTTT | -0.19 |
| ATGAACACGTGTATGG | -0.08 |
| GGGACCACGTGAGGGT | 0.25 |
| GAGTCCACGTGTAGTG | 0.22 |
| AGCGTCACGTGAGGTA | 0.32 |
| TTTGTCACGTGTGTGC | 0.13 |
| TTACGCACGTGTATGG | -0.05 |
| GGGGACACGTGGAGGG | 0.02 |
| GGGGCCACGTGCGAGG | -0.04 |
| TACGTCACGTGGTGTA | -0.16 |
| ATTGACACGTGGGCAG | -0.26 |
| GGGGTCACGTGGAGAT | 0.25 |
| GGTTGCACGTGGAGAC | 0.1 |
| GAATACACGTGAGGAG | 0.42 |
| TGTTGCACGTGTTGAC | 0.12 |
| GGCATCACGTGCGGGG | 0.04 |
| GCGGGCACGTGTCGGT | -0.07 |
| CGAGTCACGTGATGTG | 0.14 |
| TTGATCACGTGTGCGA | 0.11 |
| GTTGCCACGTGGGTGG | -0.17 |

| Sequence | relative binding free energy [kcal/mol] |
| --- | --- |
| ATAGACACGTGTGAGT | 0.02 |
| GTTGTCACGTGGGAAT | 0.05 |
| GGTCACACGTGGTGTA | 0.04 |
| AAATTCACGTGATGTG | 0.24 |
| TGGTGCACGTGCATTT | 0.05 |
| GATGTCACGTGCTGTG | 0.05 |
| ATGTGCACGTGTGGGT | 0.09 |
| AAACTCACGTGGGATG | 0.21 |
| TTACACACGTGGTAGT | -0.05 |
| CTCATCACGTGTTGGG | 0.06 |
| TTGCGCACGTGGGCCA | -0.16 |
| GGATCCACGTGGCGGT | 0.14 |
| TGTTGCACGTGACCTT | 0.02 |
| TCAGGCACGTGTCGGG | -0.03 |
| CTGAGCACGTGTGTGC | -0.1 |
| TTGGCCACGTGTAATT | 0.01 |
| TGAAGCACGTGGAAGT | 0.13 |
| AGGGTCACGTGGCGGG | -0.02 |
| TGATTCACGTGTGTTC | 0.19 |
| TGGATCACGTGGTAGT | 0.07 |
| TCTTACACGTGGTGTA | 0.02 |
| GTATACACGTGCTTTG | -0.09 |
| ACTGGCACGTGGGTCT | -0.16 |
| CGGGGCACGTGCCTGG | -0.27 |
| TTGGACACGTGTTGTG | 0.11 |

| Sequence | relative binding free energy [kcal/mol] |
| --- | --- |
| TTGGACACGTGTTAGA | 0.1 |
| TGGGGCACGTGATACT | -0.11 |
| TATTGCACGTGGGGCA | -0.19 |
| TTTTTCACGTGGCTTA | 0.14 |
| ATTAGCACGTGTTTTA | -0.03 |
| ACTGTCACGTGGTGCT | 0.02 |
| GGTAGCACGTGTAGCG | 0.09 |
| ATGCGCACGTGGGGGA | -0.19 |
| TCGCGCACGTGTTGTG | -0.2 |
| AAAGGCACGTGCTGTG | -0.23 |
| TGGATCACGTGCAGGG | 0.08 |
| ACGTTCACGTGGGTTG | 0.16 |
| TACTGCACGTGTGGGG | -0.02 |
| TACGGCACGTGTTGTT | -0.05 |
| TTTTTCACGTGCGAGT | 0.26 |
| CGAGACACGTGGGCGG | -0.03 |
| TTAAACACGTGTTGTC | -0.02 |
| ATTTGCACGTGACGGG | 0.16 |
| TCTGTCACGTGCGTTG | -0.08 |
| TATTCCACGTGGTGCG | -0.01 |
| CGTGGCACGTGTAGGT | -0.13 |
| TAGGCCACGTGAATGT | 0.26 |
| GGAAGCACGTGGGTTA | -0.14 |
